Article PMC6919601, “Identification of Plasmodium dipeptidyl aminopeptidase allosteric inhibitors by high throughput screening” (PLoS ONE, 2019)
Where “and” joins values, the source holds several entries; their conditions need not be identical. Equal entries are not always repeated. In all, about 110,000 compounds went through this assay and about 230 (0.21%) showed an effect of 50% or more. Some of the results follow.

molecular target: DPAP1 (Plasmodium falciparum, UniProt Q8IIJ9); assay: primary screen, percent inhibition; read by cleavage of a fluorogenic dipeptide substrate; higher = more effect of the substance; parameters: species or system P. falciparum D10 trophozoite lysates; single well
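Further: 30 min substrate incubation versus DMSO and 10 µM JCP410 controls.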

DPAP1, sequence (Q8IIJ9 whole entry, looked up): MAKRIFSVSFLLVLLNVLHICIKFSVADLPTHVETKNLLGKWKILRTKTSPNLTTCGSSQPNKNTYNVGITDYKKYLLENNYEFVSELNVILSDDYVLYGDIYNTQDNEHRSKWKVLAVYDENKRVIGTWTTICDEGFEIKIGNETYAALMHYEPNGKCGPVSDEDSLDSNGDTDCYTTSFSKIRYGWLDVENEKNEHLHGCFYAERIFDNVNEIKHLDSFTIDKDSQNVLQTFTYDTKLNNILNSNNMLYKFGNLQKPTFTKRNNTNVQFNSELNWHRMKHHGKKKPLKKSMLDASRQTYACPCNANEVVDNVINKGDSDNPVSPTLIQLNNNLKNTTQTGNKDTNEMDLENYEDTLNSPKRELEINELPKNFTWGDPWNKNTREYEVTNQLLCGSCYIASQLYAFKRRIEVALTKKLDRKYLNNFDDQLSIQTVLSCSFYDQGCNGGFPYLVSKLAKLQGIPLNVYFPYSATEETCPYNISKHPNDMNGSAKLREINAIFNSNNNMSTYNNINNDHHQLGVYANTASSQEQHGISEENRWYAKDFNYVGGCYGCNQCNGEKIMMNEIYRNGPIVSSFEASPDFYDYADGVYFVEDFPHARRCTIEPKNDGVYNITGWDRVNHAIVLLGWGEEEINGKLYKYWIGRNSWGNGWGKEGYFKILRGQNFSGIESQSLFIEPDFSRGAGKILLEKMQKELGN

Point of comparison: `COc1ccc(/C=C2/SC(=O)N(CC(=O)O)C2=O)cc1Br`, “% Inhibition @ 10 uM” value 8.71%. Against it:
- O=C(c1ccc(CS(=O)c2ccccc2Cl)o1)N1CCN(C2CCCCC2)CC1 (stereo not shown) — lower, 3.1%
- CCc1nc2cccnc2n1-c1ccc(C(=O)N2CCOCC2)cc1 — lower, 1.48%
- COc1cc(NC(=O)c2ccc(C)cc2)c(OC)cc1Cl — higher, 27.1%
- CC(=O)c1ccc(OCCOc2ccc(C(C)=O)cc2)cc1 — lower, -6.82%
- Oc1ncnc2nc3n(c12)CCCCC3 — lower, -2.42%
- CC1(C)CC(=O)c2c(nn(-c3ccccc3)c2-c2ccncc2)C1 — lower, 1.05%
- Cc1cc(C)c2oc(-c3cccc(NC(=O)c4cccc5ccccc45)c3)nc2c1 — lower, 2.99%
- Cc1n[nH]c2c1C(c1c(C)nn(-c3ccccc3)c1C)C(C#N)=C(N)O2 (stereo not shown) — lower, -7.27%
- COc1cc(C2c3c(oc4ccc(C)cc4c3=O)C(=O)N2CCCN(C)C)ccc1OCCC(C)C (stereo not shown) — lower, -4.78%
- CC1Cc2ccccc2N1C(=O)c1nn(C)cc1Br (stereo not shown) — lower, 2.65%
- CC(c1ccccc1)n1c(NCCCn2ccnc2)nc2c1c(=O)[nH]c(=O)n2C (stereo not shown) — lower, -1.47%
- CCN1CCC2(CC1)NC(=O)c1ccccc1O2 — lower, -1.6%
- COc1ccc(CN2CC(C(=O)NCCc3ccc(C)cc3)CC2=O)cc1 (stereo not shown) — lower, 3.79%
- CC(=O)NC1(C(F)(F)F)NC(=O)N(C)C1=O (stereo not shown) — lower, -3.53%
- Cc1ccccc1NC(=O)c1cccc(S(=O)(=O)Nc2cccc(C(=O)O)c2)c1 — lower, 4.8%
- CCCSc1nc(O)c(CC)c(=O)n1C(C)CC (stereo not shown) — lower, -3.26%
- O=C(COc1ccccc1)NC1CCCCC1 — lower, -10.6%
- CC(=O)c1cccc(NC(=O)CCC2CCCC2)c1 — lower, -5.6%
- COc1cc(CNCC2CCCO2)ccc1OCc1ccccc1Cl (stereo not shown) — lower, 0.324%
- O=C(O)c1ccc(-c2nc3cc(Cl)ccc3[nH]2)cc1 — lower, 3.93%
- O=C(O)c1cc(-c2ccccc2)nn1-c1ccccc1 — lower, -8.51%
- COc1cc(/C=C2\SC(=O)N(CC(=O)Nc3ccc(C)cc3)C2=O)cc(OC)c1OC — lower, 7.17%
- CSCCC(C(=O)Nc1cccc(C)c1)N1C(=O)c2ccccc2C1=O (stereo not shown) — lower, 7.23%
- CCC(Oc1ccccc1)C(=O)NCc1ccccc1OC (stereo not shown) — lower, 0.161%
- CCOc1ccccc1C1C(C#N)=C(N)Oc2c1c(C)nn2-c1ccc(C)cc1 (stereo not shown) — lower, -4.49%
- COc1ccc(-c2ccc(CCC(=O)O)n2NC(N)=O)cc1 — lower, -11%
- O=C(c1cc(S(=O)(=O)NC2CCCC2)cs1)N1CCCC1 — lower, -1.59%
- CS(=O)(=O)Nc1nc2ccc(Cl)cc2s1 — higher, 22.1%
- O=C1NC(=O)N(c2cccc(Cl)c2)C(=O)/C1=C\Nc1cc(Cl)ccc1O — lower, -2.54%
- CCN1C(C(=O)c2ccccc2)=C(OC(=O)c2ccc(C)cc2)c2ccccc2S1(=O)=O — lower, -1.22%
- COCCCNC(=O)Cn1c(=O)n(CC(=O)NCCc2ccccc2)c(=O)c2sccc21 — lower, 0.628%
- CC(C)(C)c1ccc(OCCCN2CCCCC2)cc1 — lower, 3%
- Cc1ccc2c(CNCc3ccccc3C)c(C(=O)O)n(Cc3cccc(F)c3)c2c1 — lower, -4.68%
- Cc1cc(-c2nc(-c3ccc(-n4cccc4)cc3)no2)c2ccccc2n1 — higher, 10.6%
- Cc1ccccc1NC(=O)C1CCCN1S(=O)(=O)c1ccc(Cl)cc1 (stereo not shown) — lower, 3.26%
- Cc1ccc2cc3cc(C(=O)NCc4ccco4)sc3nc2c1 — lower, -0.984%
- CC1CCCCC1NCc1ccc([N+](=O)[O-])cc1 (stereo not shown) — lower, 4.38%
- O=C(CCC(=O)Nc1cccc(Cl)c1)Nc1cccc(Cl)c1 — lower, 2.13%
- COc1ccc(CNCc2ccc(OC)c3ccccc23)cc1 — lower, -8.57%
- COc1ccc(C2(C(=O)NC(C)CCc3ccccc3)CCOCC2)cc1 (stereo not shown) — lower, -0.718%
- COc1ccc(N2C(C)=Nc3ccc(C)c4nc(C)cc2c34)cc1 — lower, 8.05%
- CCC1CCCCN1CCCNC(=O)c1ccc2c(Cl)c3c(nc2c1)CCC3 (stereo not shown) — lower, -7.65%
- O=C(Cn1ncc2c1-c1ccccc1OC2)NCCCN1CCc2ccccc2C1 — lower, -7.99%
- Cc1cccc(NC(=O)COc2ccc(Cl)cc2)c1 — lower, 3.24%
- CCOc1cc(CN2CCN(S(=O)(=O)c3ccc(Cl)cc3)CC2)ccc1OC — lower, -1.6%
- Cc1nc2ccccc2n1CC(=O)NCCN1CCOCC1 — lower, -3.33%
- CSCCC(/N=C/C1=C(O)OC(C)(C)OC1=O)C(=O)O (stereo not shown) — lower, -3.28%
- CCCCN(C)CCCNC(=O)c1sc2nc(C)cc(C)c2c1-n1cccc1 — lower, 0.413%
- CCNC(=O)NCc1nc(-c2ccc(Cl)cc2)no1 — lower, 3.27%
- COc1cccc(CN(C(=O)/C=C/c2ccc(Cl)cc2)C2CCS(=O)(=O)C2)c1 (stereo not shown) — lower, 0.155%
- O=C(Nc1ccccc1[N+](=O)[O-])C1=C(O)CCn2c1nc1ccccc12 — lower, 0.878%
- Cc1nn(C)c(C)c1NC(=O)CCCC(=O)c1ccccc1 — lower, 1.88%
- C=CCOc1ccc(C2C(C(=O)OCC)=C(C)N=c3s/c(=C/c4ccco4)c(=O)n32)cc1OCC (stereo not shown) — lower, -4.74%
- CCN(CC)C(C)(C)C#CC(O)(c1ccccc1)c1ccccc1 — lower, -10.2%
- CC(=O)Nc1ccccc1NC(=O)C(C)Oc1ccccc1 (stereo not shown) — lower, 1.62%
- COc1ccc(C2=NN(c3cccc(F)c3)C(c3ccc(OC)cc3)C2)cc1 (stereo not shown) — lower, 0.132%
- O=C1NC(=S)S/C1=C1\C(=O)Nc2ccccc21 — lower, 5.48%
- CCC(C)NC(=O)NS(=O)(=O)c1ccccc1Cl (stereo not shown) — lower, -2.51%
- CO/C(O)=C1\C(C)=NC2=C(C(=O)CCC2)C1c1ccc(Cl)c(Cl)c1 (stereo not shown) — lower, 4.54%
- COc1ccc(-c2nc(C3CCCN(S(=O)(=O)c4ccc(OC(F)(F)F)cc4)C3)no2)cc1 (stereo not shown) — lower, -1.07%
- CCN(CC)CCCOc1ccc(C)cc1 — lower, 1.13%
- O=c1c2cccnc2nc(SCc2cc(=O)n3cc(Cl)ccc3n2)n1Cc1ccccc1 — lower, 0.0579%
- Cc1ccccc1-c1cc(C(=O)N[C@@H](CC(C)C)C(=O)NCC#N)sc1-c1ccccc1C — lower, -4.72%
- CCN(CC)CCNC1=Nc2ccccc2CCC1 — lower, -3.93%
- COc1cc2c(cc1OC)CN(C(=O)c1sc3nc4c(c(C(F)(F)F)c3c1N)CCC4)CC2 — lower, 6.69%
- COc1cccc(N2CCN(Cc3cccs3)CC2)c1 — lower, -3.57%
- CC(C)CC(C(=O)NCC#N)c1cccc(N2CCN(C)CC2)c1 (stereo not shown) — lower, -0.0222%
- Cc1ccc2oc3c(c(=O)c2c1)C(c1ccccc1F)N(Cc1ccc2c(c1)OCO2)C3=O (stereo not shown) — lower, -1.33%
- O=C(CC(c1cccs1)N1Cc2ccccc2C1=O)N1CCc2ccccc2C1 (stereo not shown) — lower, -4.59%
- COc1cccc(C2C(C#N)=C(N)Oc3[nH]nc(C)c32)c1OCc1ccc(Br)cc1 (stereo not shown) — lower, -5.34%
- CCc1ccc(-c2cc3c(=O)n(CC(=O)NC4CCN(Cc5ccccc5)CC4)nc(C)n3n2)cc1 — lower, 3.67%
- CCOc1ccc(C2=Nn3c(nnc3-c3ccccc3Br)SC2)cc1 — lower, -4.01%
- CN(Cc1ccccc1)C(=O)c1cccc(C(=O)N(C)Cc2ccccc2)c1 — lower, -1.22%
- CC(C)C(=O)NCC(C)(C)CNC(=O)C(C)C — lower, 4.11%
- COc1ccc(C(=O)NCC2(c3ccc(OC)c(OC)c3)CCCC2)c(OC)c1 — lower, 5.55%
- CC(C)(C)Nc1nc(Cl)nc(Nc2ccc(Cl)cc2)n1 — lower, -4.31%
- FC(F)(F)c1cc(-c2ccco2)nc(-n2nnc3ccccc32)n1 — lower, 0.552%
- COc1ccccc1C(=O)N/C(=C\c1ccccc1)C(=O)NC(CC(C)C)C(=O)O (stereo not shown) — lower, 5.55%
- Cc1[nH]c2ccccc2c1CN1CCN(c2ccccc2F)CC1 — lower, 3.8%
- Nc1nc(-c2cccc(Br)c2)cs1 — lower, 3.95%
- CCN(CC)C(=O)Nc1cn(C)c(=O)c2ccccc12 — lower, 4.44%
- COc1ccc(-c2c(C)nn3c(N4CC(C)CC(C)C4)cc(C)nc23)cc1OC (stereo not shown) — lower, -5.58%
- Cc1ccc(CCNC(=O)Cn2ccc3cc(S(=O)(=O)N4CCC(C)CC4)ccc32)cc1 — lower, -0.899%
- OC(CC#CCN1CCCC1)(c1ccccc1)c1ccccc1 — lower, 0.962%
- O=C(c1cccnc1)N1N=C(C(F)(F)F)C2CCCCCC21O (stereo not shown) — lower, -5.15%
- CC(=O)c1cccc(NC(=O)Cn2nc(C(F)F)cc2C)c1 — lower, -1.78%
- CCOC(=O)C1CCN(Cc2ccc(Br)s2)CC1 — lower, 1.55%
- Cc1ccc(OCC(=O)Nc2cccc3ccccc23)c(C)c1 — lower, -1.42%
- C=CCNC(=O)c1cc(-c2ccccn2)nc2ccc(S(=O)(=O)N3CCOCC3)cc12 — lower, -4.97%
- Cc1ccc(C(=O)N(CCCN(C)C)c2nc3c(F)cccc3s2)cc1 — lower, 4.68%
- COc1ccc(-c2cc(C(F)(F)F)n3nc(C(=O)NCc4cnn(C)c4C)cc3n2)cc1OC — lower, 2.32%
- CC1=C(c2ccc(C)c(C)c2)S(=O)(=O)N=C1N1CCC(C(=O)NCCCN2CCOCC2)CC1 — lower, -1.56%
- O=C(Nc1nc(-c2ccc(Cl)cc2)cs1)c1cncc(Br)c1 — lower, 6.65%
- O=C(C1COc2cc(S(=O)(=O)N3CC=C(c4ccccc4)CC3)ccc2O1)N1CCCCC1 (stereo not shown) — lower, -1.02%
- NC(=O)c1cc(S(=O)(=O)N2CCC(c3ccccc3)C2)cs1 (stereo not shown) — lower, -1.23%
- O=S(=O)(Nc1cccc(O)c1)c1ccc(-c2ccccc2)cc1 — lower, -0.294%
- CCSc1ncc(Cl)c(C(=O)NCc2ccc(C)cc2)n1 — lower, 2.19%
- CN1CCN(S(=O)(=O)c2ccc([N+](=O)[O-])cc2)CC1 — lower, -0.856%

For `CC(=O)c1cccc(NS(=O)(=O)c2cc(Cl)ccc2Cl)c1`, the “% Inhibition @ 10 uM” value was 0.687% and -6.66%.
